Experimental data as given in the supplement of paper PMC10126150.
Values marked as one replicate rest on one cluster of the flow cell; about a third of the high ones do not repeat.

Test system: ATP
Assay: switch fluorescence ratio, 500 uM ATP over buffer (Cy3 cluster intensity, sum of 5 cycles each) (fold (ratio)); higher = stronger signal-on switching upon ATP binding; sequences stand for … in TCGTCGGCAGCGTCAGATGTGTATAAGAGACAGTTTTTTTTTTTTTTTTTTTTTTTTT…TC
Conditions: aptamer strand: ATP DNA aptamer (quencher-CACCTGGGGGAGTATTGCGGAGGAAGG + anchor), 100 nM annealed; ATP concentration: 500 uM; one replicate
Procedure, shortened: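 Values give the fluorescence ratio for each switch-domain sequence, averaged from per-cluster ratios of summed target-cycle to summed buffer-cycle Cy3 intensity. The Cy3-labelled switching-strand clusters sat on a modified Illumina MiSeq flow-cell, were annealed to 100 nM quencher-labelled ATP aptamer, and were imaged in selection buffer, then after 15 min with 500 uM ATP at 22 °C. Five cycles ran with NaOH stripping and re-annealing between them, and clusters outside 100-1000 RFU were excluded.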
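Also: ATP exposure 15 min at 22 °C before imaging.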

## AGGAGACCT
  switch fluorescence ratio: 1.28

## CGGGTGAAGC
  switch fluorescence ratio: 1

## ACGGCAGCAG
  switch fluorescence ratio: 1.06

## GACTGCTTGT
  switch fluorescence ratio: 1.03

## CGAGAGGATA
  switch fluorescence ratio: 1.03

## CAGGGGCAG
  switch fluorescence ratio: 1.06

## GCCCAGGCTT
  switch fluorescence ratio: 1.06

## GCGCTTTACT
  switch fluorescence ratio: 2.69

## CAGCAATCAG
  switch fluorescence ratio: 2.8

## TCTTCAAGGA
  switch fluorescence ratio: 0.966

## GTGACACATG
  switch fluorescence ratio: 0.959

## TTCCAGCGGG
  switch fluorescence ratio: 0.986

## AATTTCCAAC
  switch fluorescence ratio: 1.03

## GCACGGGTTC
  switch fluorescence ratio: 1.12

## AAGAACTAGA
  switch fluorescence ratio: 0.991

## CGAGGAGATA
  switch fluorescence ratio: 0.998

## ACAGACACCA
  switch fluorescence ratio: 1.14

## GCAGCAACC
  switch fluorescence ratio: 3.36

## CGGCATCACT
  switch fluorescence ratio: 1.19

## ATCCCACTTT
  switch fluorescence ratio: 1.08

## CCTTGTTTTA
  switch fluorescence ratio: 1.01

## AAGGGGAGAC
  switch fluorescence ratio: 1.73

## TTTTATGAC
  switch fluorescence ratio: 1.02

## GCGGGTGGGT
  switch fluorescence ratio: 0.965

## CACTACTACG
  switch fluorescence ratio: 1.12

## GCTTCTTGTA
  switch fluorescence ratio: 1.02

## TCTTGTTGTG
  switch fluorescence ratio: 0.988

## CTAAGGGCTA
  switch fluorescence ratio: 1.04

## AGCATTTAGC
  switch fluorescence ratio: 1.04

## GCCGATATGG
  switch fluorescence ratio: 0.957

## AAAAAAAAAG
  switch fluorescence ratio: 0.969

## AGTTTGTTCA
  switch fluorescence ratio: 0.987

## GTCGAGTTAT
  switch fluorescence ratio: 0.938

## ACACCACTAT
  switch fluorescence ratio: 1.31

## GTGACTATTG
  switch fluorescence ratio: 1.07

## ATGTAAGAGT
  switch fluorescence ratio: 1.09

## TGGTACTTCC
  switch fluorescence ratio: 1.67

## AATTACGCGG
  switch fluorescence ratio: 1.06

## CCTGGAACG
  switch fluorescence ratio: 1.01

## ACTGGCGCGA
  switch fluorescence ratio: 1.01

## GATAAAACAG
  switch fluorescence ratio: 1.03

## GTTCGGTTTT
  switch fluorescence ratio: 0.959

## GAGGGTGCCC
  switch fluorescence ratio: 1.07

## TTGCTCAATT
  switch fluorescence ratio: 1.03

## GACTGTGCAC
  switch fluorescence ratio: 1.05

## AGGGCGCTGG
  switch fluorescence ratio: 0.969

## ATGTACTTCC
  switch fluorescence ratio: 2.05

## GTTAGCCAAT
  switch fluorescence ratio: 0.986

## GTGTCCGTCG
  switch fluorescence ratio: 1.01

## AAAAGTTATA
  switch fluorescence ratio: 1.03

## GCCTTTGCAA
  switch fluorescence ratio: 1.41

## TTGTCGTCTA
  switch fluorescence ratio: 0.968

## CACTGTCTTC
  switch fluorescence ratio: 1.03

## TTACTTAAGC
  switch fluorescence ratio: 1.04

## TGGCTTTAAG
  switch fluorescence ratio: 0.939

## GAAGGCGGTG
  switch fluorescence ratio: 1.03

## CAATTGGACC
  switch fluorescence ratio: 1.02

## CGGTTTCTA
  switch fluorescence ratio: 1.04

## GAGCCCCAGG
  switch fluorescence ratio: 3.23

## GAAGCTCATT
  switch fluorescence ratio: 0.975

## GCGGTTGGGA
  switch fluorescence ratio: 0.963

## TCTATTATGG
  switch fluorescence ratio: 0.947

## TTGCTTGAAT
  switch fluorescence ratio: 1.04

## GAGTATGATA
  switch fluorescence ratio: 1.02

## GGGGGTTTT
  switch fluorescence ratio: 1.02

## TTCGGCGCTA
  switch fluorescence ratio: 1.2

## TATTCGGATC
  switch fluorescence ratio: 0.976

## TTGAGTCTCA
  switch fluorescence ratio: 1.01

## CACGGTTTAG
  switch fluorescence ratio: 0.988

## GTGTCGGTTG
  switch fluorescence ratio: 1.04

## GTTATTCTGA
  switch fluorescence ratio: 0.95

## CGTGGATGGG
  switch fluorescence ratio: 0.981

## GACGGTAAGA
  switch fluorescence ratio: 1.06

## GGCGGACGGC
  switch fluorescence ratio: 0.999

## GACAGAAAG
  switch fluorescence ratio: 1.03

## CGGTTGCCTA
  switch fluorescence ratio: 0.918

## GACGGAAATC
  switch fluorescence ratio: 1.42

## AGATTTATAA
  switch fluorescence ratio: 1.04

## ACGTTCGCAG
  switch fluorescence ratio: 1.13

## GTTCGTTTCA
  switch fluorescence ratio: 0.967

## TCGGTAGGTT
  switch fluorescence ratio: 1.01

## CAGACGCGTC
  switch fluorescence ratio: 1.03

## ACAACGGTGC
  switch fluorescence ratio: 1.24

## AATCGGCGAT
  switch fluorescence ratio: 1.01

## ACCGCCTGAC
  switch fluorescence ratio: 3.56

## GCGCCCCTTC
  switch fluorescence ratio: 1.09

## GCCTCATATG
  switch fluorescence ratio: 0.98

## CGGTCGGGCA
  switch fluorescence ratio: 1.03

## CGTTTCAGCC
  switch fluorescence ratio: 0.98

## TTTGTAGTT
  switch fluorescence ratio: 1.04

## CGCCGTTTTT
  switch fluorescence ratio: 0.972

## TAAGGAAAAA
  switch fluorescence ratio: 2.43

## ACCGATTGGC
  switch fluorescence ratio: 0.987

## TAGTTCTTCT
  switch fluorescence ratio: 1.02

## TTTTAAGCGA
  switch fluorescence ratio: 1.1

## GGGGTGGTGA
  switch fluorescence ratio: 1.04

## AAGATGTCGG
  switch fluorescence ratio: 0.961

## TGATATTTCG
  switch fluorescence ratio: 0.94

## CTGGCTTCGT
  switch fluorescence ratio: 1.01

## GGCTTTCAGT
  switch fluorescence ratio: 1

## AAGATCCATA
  switch fluorescence ratio: 0.974

## TACTGAGAAT
  switch fluorescence ratio: 1.06

## AGTATGGTTT
  switch fluorescence ratio: 0.955

## GCAAGACTCG
  switch fluorescence ratio: 3

## TTCCTGGGTA
  switch fluorescence ratio: 1.03

## GCTAGTCGAC
  switch fluorescence ratio: 0.984

## TAACTATCTC
  switch fluorescence ratio: 1.01

## TACACTGCAG
  switch fluorescence ratio: 1.02

## TCAGAAGGAG
  switch fluorescence ratio: 1

## TTGTTTTGCC
  switch fluorescence ratio: 0.948

## AGGAATATAG
  switch fluorescence ratio: 0.999

## TGTCAAGCGT
  switch fluorescence ratio: 0.997

## ACAGACTAAG
  switch fluorescence ratio: 1.09

## CGGGGTATCG
  switch fluorescence ratio: 0.981

## TAAGCAGTAG
  switch fluorescence ratio: 1.42

## AGTAGGCGGC
  switch fluorescence ratio: 0.996

## GGACGGAGGA
  switch fluorescence ratio: 0.924

## AGACTCGCCG
  switch fluorescence ratio: 1.01

## GTTGCGCCT
  switch fluorescence ratio: 1.03

## CCGGTACTGG
  switch fluorescence ratio: 1.05

## GGCGTGGAGG
  switch fluorescence ratio: 1.04

## TGTTAAGGCG
  switch fluorescence ratio: 1.12

## TCTCGGCCAA
  switch fluorescence ratio: 2.73

## GGCCCTTTG
  switch fluorescence ratio: 0.92

## GACGTGTTGC
  switch fluorescence ratio: 1.05

## AACGCAAGCG
  switch fluorescence ratio: 1.06

## ACGACCATCT
  switch fluorescence ratio: 1.15

## TACGTCGG
  switch fluorescence ratio: 1.01

## GTGAGCATAA
  switch fluorescence ratio: 1.07

## GCGCTGGGAG
  switch fluorescence ratio: 1.02

## ATGGTAGGGC
  switch fluorescence ratio: 0.966

## GGTTCACTTG
  switch fluorescence ratio: 0.99

## TCCTAACCGT
  switch fluorescence ratio: 1.19

## TTTAAAGCGT
  switch fluorescence ratio: 0.983

## ATTATCACTT
  switch fluorescence ratio: 1.02

## GCTTGCGGAG
  switch fluorescence ratio: 1.06

## CATTTTGTTC
  switch fluorescence ratio: 0.973

## GGCGTAGGAA
  switch fluorescence ratio: 1

## CATTGTGAGT
  switch fluorescence ratio: 0.941

## GAACGAGACG
  switch fluorescence ratio: 1.05

## ATGCTAATAA
  switch fluorescence ratio: 1.01

## GGGTACCGCT
  switch fluorescence ratio: 0.958

## GCGGGCGCTG
  switch fluorescence ratio: 0.997

## CCAATGTAAA
  switch fluorescence ratio: 1

## TCGTAAGGGG
  switch fluorescence ratio: 1.01

## GTTTCCCACC
  switch fluorescence ratio: 1.06

## TGAAACAATA
  switch fluorescence ratio: 1.02

## GATCTTCAAA
  switch fluorescence ratio: 1.02

## CTGCTTTCTC
  switch fluorescence ratio: 1.15

## ACCGGTGGCA
  switch fluorescence ratio: 1.04

## CTCGCTGGGT
  switch fluorescence ratio: 1

## TTTAGTGGAG
  switch fluorescence ratio: 1.02

## CTAATTCACA
  switch fluorescence ratio: 1.11

## ACTGACTGAT
  switch fluorescence ratio: 1.16

## GTTAGATATC
  switch fluorescence ratio: 0.968

## ACTGCCTAC
  switch fluorescence ratio: 1.46

## TTACTTGGAT
  switch fluorescence ratio: 1.01
